Results: article PMC3311221 (Nature cell biology, 2011)

Target: the molecule itself
Experiment: SEC + other: glycerol gradient sedimentation

B1: human TFG amino-terminus ([…]), recombinant (domain or fragment)
chain: not shown
  stoichiometry N: 8
